Results from the supplement of paper PMC11417369.
± gives the standard deviation of the averaged measurements. This is one part of the list.

tested on: PfAP2-LT AP2 domain (GST-tagged); assay: gcPBM binding intensity (ln(normalized median fluorescence intensity)); higher = stronger DNA binding
How it was run: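 For binding intensity, the highest Masliner-normalised natural-log median intensity across replicate spots of either probe orientation was taken. Protein bound to the array was stained with Alexa488 anti-GST antibody and scanned at 488 nm. The protein, GST-tagged P. falciparum DNA-binding domains from E. coli at about 25 μg on average, had been applied for 1 h to an Agilent 4 × 180k array of primer-extended double-stranded 36-bp intergenic genomic probes and negative controls.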

Sequence | gcPBM binding intensity (ln)
AAAAAAAAAAAATAATGTACATATGTATTTGAGAAA [XGTACX_site3572] | 8.71 ± 0.55
TATGTATATATATATATATATATATATATATATATA [TGCATGCA_negctrl_site491] | 9.71 ± 0.13
ATGGCCACTGTGAAATGTACAAAAAAAAAATACAAT [XGTACX_site2874] | 9.05 ± 0.61
TATGTGCACCCATGTACATGCGGACATATGTTATAT [TGCATGCA_site383] | 9.04 ± 0.42
ATTTCCTTTTGTTTCAGTACATAATTTTTTTTTTTT [XGTACX_site4842] | 8.83 ± 0.45
GTTAAATAATATATATGTACATACATAAGTGTTACT [XGTACX_site4778] | 8.86 ± 0.4
TTGCCCATTTAATTAACACACAAATATTTATATTCT [CACACA_site738] | 8.96 ± 0.39
GATATTCATAGAAACACACATACAAATTATGTATAT [CACACA_site144] | 8.94 ± 0.35
TAATTGTACGCCAATACACACAGAATTAAAATGTAG [CACACA_site4234] | 9.04 ± 0.38
TTTTTAAAGTTTTATACACACACCAAAATTATTCTA [CACACA_site600] | 8.81 ± 0.39
AAAAAAATACCATTCACACATATTCTTTTATTATTT [CACACA_site5113] | 8.66 ± 0.49
AAAAAAAAAAAGTTTACACACATTAATTTTACATAT [CACACA_site834] | 8.93 ± 0.48
TTTCATAACAAAAAAGTGCAAAATAGCACGAACATT [GTGCAC_site9703] | 8.93 ± 0.4
AAAAATTATATACATCATAGAATTAACATTTTAAAT [GTGCAC_negctrl_site369] | 8.53 ± 0.47
AGAAAAAGGAGAAAAAGTACAAAACGGAGTAGTATT [XGTACX_site3858] | 9.2 ± 0.5
GTAGCAATAAACATATGTACATATATATATTTTTTC [XGTACX_site5814] | 8.87 ± 0.42
AAATCAACGATCTATACATGCATATAATATATACAT [TGCATGCA_site25] | 8.94 ± 0.36
TAATAATACCCTTGCTGTACCAAATAAAGTTGAATA [XGTACX_site6922] | 8.56 ± 0.36
ACAAACAAAGAAAGAACACACATACACAATATACCT [CACACA_site5566] | 9.54 ± 0.39
ATATTTAAATAATATTCACACACAAAATTATATTTT [CACACA_site7955] | 9.04 ± 0.52
CATATAAAAATATATGCACACAAATAAAAAATTATA [CACACA_site9210] | 8.97 ± 0.47
ATTTCTCAATCGTAATGTACAAAAAAAAGGGAAAAG [XGTACX_site2781] | 8.7 ± 0.45

Sequence | gcPBM binding intensity (ln)
TATGAGGAAACGTGGTGTACTTTTTTTTAATAAAAA [XGTACX_site1351] | 8.31 ± 0.58
ATAAATATAATAATCATACACACCAAAGAGAATATT [CACACA_site1888] | 9.08 ± 0.38
AAAGTTATTATGCAATAATTATGATAATTAATATAT [TGCATGCA_negctrl_site316] | 8.64 ± 0.45
ATGACTTACATATATAGTACTTTGTTTTGGAGTTGC [XGTACX_site94] | 8.93 ± 0.42
TAATAAAATATGTACGTGCACATAATTATACTAAAA | 8.96 ± 0.43
TGATACTTTTTTTGTAGTACTCCTAAAATTATAAAA [XGTACX_site4340] | 8.34 ± 0.4
TTTTTTTTATTTTAATGTACATTTTTTATTTGTTAT [XGTACX_site7189] | 8.93 ± 0.62
ATATATATATTATTTCGTACATAATTATTTGCCTTA [XGTACX_site350] | 8.78 ± 0.35
AAAAAAAAAAAAAATTGTACAAAAAAAATAAATAAA [XGTACX_site6816] | 8.62 ± 0.81
AAAAAAAAAAAAGAAACACACATATTTATATTTATA [CACACA_site6213] | 8.59 ± 0.48
TTATTTTAATAACCTACACACATTTTGTATATTTTA [CACACA_site4000] | 8.9 ± 0.44
AAATGATGGAAAAAATAAATTTTTGTACAAAAATTA [CACACA_negctrl_site814] | 8.51 ± 0.42
TTATAAATATTCTTGGGTACTTAAGATGATATGTAA [XGTACX_site5496] | 8.44 ± 0.39
AAAAAAAAAAAGAAAGCACACAATACATATGTATAA [CACACA_site1137] | 8.91 ± 0.49
ATATATATCAGACACACACACATGTTTTAAAACTAT [CACACA_site77] | 9.49 ± 0.34
TAAATTTTTAAATACACACATACACCCATACAGACA [CACACA_site548] | 9.28 ± 0.34
TTTTTTTTGTGGTGTCGTACATATGTTTGTTTTAAG [XGTACX_site1759] | 8.91 ± 0.44
ACATATATATATATATATATATATATATAATATTTA [CACACA_negctrl_site633] | 9.37 ± 0.33
ATTATGCTACAAGGAGAACACACAATTGCCACTTTT [CACACA_site8673] | 9.1 ± 0.46
GGTGATAATAAGCATACACACACACCCAAAAAAAAA [CACACA_site8137] | 9.59 ± 0.35
CCACGAGAATATATAGTGCATAATAATTTTTTTTTG | 8.65 ± 0.54
TTTAAAAAGATATATACACACATATAAATAAATATA [CACACA_site6436] | 8.88 ± 0.43
